Measured values published in PubChem BioAssay AID445 (National Center for Advancing Translational Sciences (NCATS), 2006).
Hit rate of the full screen: of about 110,000 compounds, about 40 (0.04%) were called active. This list was built around the results that the source calls inconclusive (neither active nor inactive); the mix of calls is not that of the screen. The call rests on the fitted dose curve; in most records, active means well fitted curve in the direction sought with a large enough effect in the signal ratio (not every such curve was filed as active); inconclusive means small, poorly fitted or top-dose-only effect, or a change in a side signal; inactive means flat fitted curve, though single readings scatter; the % refers to the signal ratio. Potencies beside an inconclusive call are fits to weak or partial responses and may not hold up.

Assay: IkB Signaling
Details: ABC-DLBCL IkBa-CBG/CBR dual luciferase ratio (green luciferase fused to IkBa over red control in OCI-Ly3 lymphoma cells), 4 h; IkBa stabilization activation: at 57.1 µM (top of the series), scaled: untreated 0%, proteasome inhibitor 100% unless noted
From the text: NIH Molecular Libraries Screening Centers Network [MLSCN]
NIH Chemical Genomics Center [NCGC]
Nuclear factor kappa-B (NF-kappa-B) plays an important role in normal B cell development and survival. Diffuse large B cell lymphoma (DLBCL) is the most commonly observed type of non-Hodgkin's lymphoma. Gene expression analysis has identified an activated B cell-like subtype of DLBCL (ABC-DLBCL) which expresses known NF-kappa-B target genes. […] However, targets upstream of IKK have been largely unexplored and so nodes upstream of IKK in the NF-kappa-B pathway remain untested due to the lack of chemical probes.
A cell-sensor assay for I-kappa-B-alpha stabilization was developed with NIH investigator Dr. R. Eric Davis in Dr. Louis M. Staudt's laboratory. The assay uses green (CBG68) and red (CBR) emitting beetle luciferases [Chroma-Glo(TM) developed by Promega Corp.] where the green luciferase is fused to I-kappa-B-alpha and the red luciferase is present in its native state. Both luciferase genes are stably present in the OCI-Ly3 human ABC DLBCL cell line, but their expression is under the control of tetracycline-inducible promoters. Following the addition of doxycycline to induce expression of the luciferases, the green luminescence in control cultures rises only slowly because the CBG fusion partner I-kappa-B-alpha is targeted by IKK activity for rapid degradation. In contrast, green luminescence rises rapidly in the presence of proteasome inhibitors or IKK inhibitors. The rise in red luminescence of CBR is not affected by proteasome or IKK inhibitors, and serves as normalization for cell number and nonspecific effects. Compounds were screened as a concentration-titration series that ranged from 57 uM to 0.7 nM.
NCGC Assay Protocol Summary:
Cells were seeded in 1536-well plates at 5000 cells/3ul in IMDM medium containing 0.5% FBS, w/o phenol red, L-glutamine, 25 mM HEPES, 3 mg/ml sodium bicarbonate. After centrifugation for 1 min. at 1000 rpm, 23 nl of compounds or DMSO were delivered to each well using a pin tool. Then 1ul 80ng/ml doxycycline was dispensed into white solid 1536-well plates and the plates were incubated at 37C/5% C02 in a cell incubator for 4 hrs. Then 4 ul Chroma-Glo luminescent substrate mix (Promega) was added to each well. The plate was incubated at R.T. for 10-15 min. The plates were measured on a ViewLux plate reader for green luminescence (540/20 nm filter) and red luminescence (618/8 nm filter). The green and red luminescent signals were corrected for red and green luminescence filter overlap using previously determined filter calibration constants (determined using the procedure outlined in the Promega Technical Manual). The %Activity was determined from the ratio of corrected green/red luminescent values. Green luminescent and ratio %Activity was determined by normalizing to the difference in signal between basal cells (0% Activity) and cells incubated with 10 uM of the proteasome inhibitor MG-132 (100% Activity). Red luminescent %Activity was normalized to the difference between red luminesence in basal cells (0%Activity) and zero luminescence (-100% Activity).
Concentration-response curves were fitted to the signals arising from the green luminescence (I-kappa-B-alpha-luciferase fusion; IkB-luc) and the red luminescence (unfused luciferase; luc) as well as the calculated ratio. The concentration-effect curves were then classified based on curve quality (r2), response magnitude and degree of measured activity. Compounds were then categorized based on their concentration-response curves for all three datasets (Ikb-luc, luc and ratio).
Keywords: IKK, I-kappa-B, IkB, IkBa, cytotoxicity, luminescence, MLSMR, MLSCN, NIH Roadmap, qHTS, NCGC
Potency means the concentration at half of the fitted maximal effect.

| SMILES | IkBa stabilization activation | Potency |
| --- | --- | --- |
| CCOc1ccc(CNC(=O)c2cc3cc(S(=O)(=O)N4CCCCC4)ccc3n2C)cc1 | inconclusive: -1.9% [signal inhibitor] |  |
| Oc1ccc(NCc2ccccc2OCc2ccccc2)cc1 |  | inconclusive: 31.6 µM [rising, single point] |
| COc1ccc(C(=O)NCCc2csc(-c3ccc(Cl)cc3)n2)c(OC)c1 | inconclusive: -1.28% [signal inhibitor] |  |
| Cc1ccc(Cl)cc1-n1c(SCC(=O)NCc2ccccc2)nc2n[nH]c(C)c2c1=N | inactive: -1.46% |  |
| CSc1ccc(CCNC(=O)CN2C(=O)COc3ccc(S(=O)(=O)N4CCCCCC4)cc32)cc1 | inconclusive: 0.718% [signal inhibitor] |  |
| Cc1cnc(NC(=O)CSc2ncc(-c3ccccc3)n2Cc2ccco2)s1 | inconclusive: -6.04% [signal inhibitor] |  |
| COc1ccccc1-c1nn(CCC(=O)Nc2ccccc2)c2nc(C)cc(C)c12 | inconclusive: 5.13% [signal inhibitor] |  |
| COc1ccc(C2Nc3ccccc3C(=O)N2Cc2ccco2)cc1COc1ccc(NC(C)=O)cc1 (configuration not stated) | inactive: 18.1% |  |
| Cc1ccc2nc(-c3ccc(C)s3)c(Nc3ccc4c(c3)OCCO4)n2c1 | inconclusive: -0.014% [signal inhibitor] |  |
| O=C(CN(c1ccc2c(c1)OCCO2)S(=O)(=O)c1ccccc1)NCc1ccco1 | inactive: -0.261% |  |
| O=C(NCc1ccccc1Cl)c1ccc2c(c1)NC(=O)C(CS(=O)(=O)Cc1ccc(Cl)cc1)N2 (configuration not stated) | inconclusive: -1.19% [signal inhibitor] |  |
| CCOc1ccc(-c2cc(C(=O)N3CCN(c4ccccn4)CC3)c3ccccc3n2)cc1 | inactive: 2.32% |  |
| CCN(CC)CCNC(=O)c1cc2c(-c3cccc(OC)c3)nn(C)c2s1 | inactive: 1.57% |  |
| Cc1ccc2[nH]cc(C(c3ccccc3)c3ccc(Cl)s3)c2c1 (configuration not stated) | inconclusive: 0.971% [signal inhibitor] |  |
| Cc1cccc2sc(N(Cc3cccnc3)C(=O)c3ccco3)nc12 | inconclusive: 0.263% [signal inhibitor] |  |
| O=C(NCc1ccco1)c1ccc(S(=O)(=O)N2CCCc3ccccc32)cc1 | inconclusive: 4.93% [signal inhibitor] |  |
| COCCn1nnnc1C(c1ccc(OC)cc1OC)N1CCN(c2ccccc2F)CC1 (configuration not stated) | inactive: 0.29% |  |
| CCOc1ccc(NC(=O)CN2C(=O)c3ccccc3Sc3ccc(C(=O)OC)cc32)cc1 | inconclusive: 7.68% [signal inhibitor] |  |
| CC(=O)NCCNc1ncnc2ccc(-c3ccccc3C)cc12 | inactive: 2.31% [at 11.4 µM, scaled: untreated 0%, proteasome inhibitor 100%] |  |
| Cc1ccc2c(c1)c(=O)c1ccccc1n2CCCC(=O)Nc1ccc(Cl)c(Cl)c1 | inconclusive: 11.5% [signal inhibitor] |  |
| COc1cc(NC(=O)CSc2nc(-c3ccccc3)no2)cc(OC)c1 | inconclusive: 3.75% [signal inhibitor] |  |
| COc1cccc(NC(=O)CN2C(=O)CC(c3ccco3)Sc3ccccc32)c1 (configuration not stated) | inconclusive: 2.98% [signal inhibitor] |  |
| COC(=O)c1sc(-c2ccccc2)cc1NC(=O)c1cccc(Cl)c1 | inconclusive: 1.38% [signal inhibitor] |  |

| SMILES | IkBa stabilization activation | Potency |
| --- | --- | --- |
| Cc1cccc(C)c1NC(=O)C(=O)NCC(c1cccnc1)N1CCc2ccccc21 (configuration not stated) | inconclusive: 5.11% [signal inhibitor] |  |
| CN(C)c1ccc(C(=C2C=CC(=[N+](C)C)C=C2)c2ccc(N(C)C)cc2)cc1 | inconclusive: -10% [signal inhibitor] |  |
| CN(C)CCSc1nnc2sc3ccccc3n12 | inactive: -0.938% |  |
| O=C(CSc1nc2c([nH]c3ccccc32)c(=O)n1-c1ccc(Cl)cc1)NC1CCCCC1 | inconclusive: 0.232% [signal inhibitor] |  |
| CSc1nc(C)c2cc(C)oc2n1 | inconclusive: -3.47% [signal activator] |  |
| CCc1ccc(NC(=O)N2CCN(Cc3nc4ccc(C)cc4o3)CC2)cc1 | inconclusive: 0.456% [signal inhibitor] |  |
| Cc1ccc(N2CCN(C(=O)c3cn(C)c4ccc(S(=O)(=O)N5CCCC5)cc4c3=O)CC2C)cc1 (configuration not stated) | inactive: -2.32% |  |
| Cc1cccc(N(C)C(=O)c2cc3cc4ccc(C)cc4nc3o2)c1 | inconclusive: -0.676% [signal inhibitor] |  |
| CCOc1cc(C(Nc2cc(C)ccn2)c2ccc3cccnc3c2O)ccc1OC (configuration not stated) |  | inconclusive: 15.8 µM [rising, partial curve] |
| Cc1ccc(CNC(=O)c2cn(C3CCCC3)c(=O)c3c2c2ccccc2n3C)o1 | inconclusive: 4.86% [signal inhibitor] |  |
| COc1ccc(N2CCN(S(=O)(=O)c3cc(Br)cc4c3N(C(=O)C3CC3)CC4)CC2)cc1 | inconclusive: 5.18% [signal inhibitor] |  |
| CC(C)(C)OC(=O)N1CCC(c2c(C(=O)N3CCN(c4ccccn4)CC3)cnn2-c2cccc(F)c2)CC1 | inconclusive: 4.94% [signal inhibitor] |  |
| Cc1ccc(C(=O)NCC(c2ccco2)S(=O)(=O)c2ccccc2)cc1C (configuration not stated) | inconclusive: 1.45% [signal inhibitor] |  |
| CCOC(=O)c1ccc(NS(=O)(=O)c2ccc3c(c2)CCN3C(=O)CC)cc1 | inconclusive: 12.6% [signal inhibitor] |  |
| CCOc1ccc(Br)cc1-c1noc(-c2cccs2)n1 | inactive: 1.85% |  |
| O=C(CSc1nccn1Cc1ccccc1)Nc1nc2ccccc2s1 | inconclusive: 0.114% [signal inhibitor] |  |
| Cc1cc(C)c(Cn2c(=O)n(Cc3ccccc3)c(=O)c3c(C)c(C)sc32)c(C)c1 | inconclusive: 1.44% [signal inhibitor] |  |
| O=C(CSc1nnc2c(Cl)cc(C(F)(F)F)cn12)Nc1ccc2c(c1)OCO2 | inconclusive: 0.955% [signal inhibitor] |  |
| COc1cccc(C(=O)Nc2ccc(N(C)C)cc2)c1OC | inconclusive: 13% [signal inhibitor] |  |
| CCOC(=O)c1c(NC(=O)c2ccc(S(=O)(=O)N(CC(C)C)CC(C)C)cc2)sc2c1CCN(CC)C2 | inconclusive: 1.78% [signal inhibitor] |  |
| CCOC(=O)N1CCc2c(sc(NCc3cccs3)c2C(=O)Nc2cc(Cl)ccc2OC)C1 | inconclusive: 2.49% [signal inhibitor] |  |
| COc1cccc(-c2ccc3ncnc(NCCc4c[nH]c5ccc(OC)cc45)c3c2)c1 | inactive: -7.19% [at 11.4 µM, scaled: untreated 0%, proteasome inhibitor 100%] |  |
| Cc1cccc(NC(=O)C(NS(=O)(=O)c2cccc3nsnc23)c2ccccc2)c1C (configuration not stated) | inactive: -1.13% |  |

| SMILES | IkBa stabilization activation | Potency |
| --- | --- | --- |
| O=C1c2ccccc2C(=O)N1Cc1nc(-c2ccccc2)no1 | inactive: 11.1% |  |
| COc1ccccc1N1CCN(C(=O)c2ccc3c(c2)N(Cc2cc(C)ccc2C)C(=O)c2ccccc2S3(=O)=O)CC1 | inconclusive: 1.32% [signal inhibitor] |  |
| COc1ccccc1CN(Cc1nc2ccccc2c(=O)[nH]1)C(=O)Nc1ccccc1 | inconclusive: -2.58% [signal inhibitor] |  |
| CC(=O)N(CN1C(=O)c2ccccc2C1=O)c1ccccc1 | inconclusive: 0.385% [signal inhibitor] |  |
| CC(=O)c1cccc(NC(=O)[C@H](Cc2ccccc2)N2Cc3ccccc3C2=O)c1 | inconclusive: 1.69% [signal inhibitor] |  |
| O=C(Nc1nc2c(s1)CCCC2)c1ccc(Br)o1 | inconclusive: 17.2% [signal inhibitor] |  |
| COc1ccccc1C(=O)NCCSc1c(C)[nH]c2ccccc12 | inconclusive: -6.73% [signal inhibitor] |  |
| COc1cccc(NC(=O)CSc2nc(=O)n(Cc3ccccn3)c3c2CCC3)c1 | inconclusive: 5.94% [signal inhibitor] |  |
| COc1ccc(CCNC(=O)c2ccc3c(c2)N=C(C)c2cc(C)ccc2S3)cc1OC | inconclusive: 5.45% [signal inhibitor] |  |
| CCc1ccc(NC(=O)Cn2c(=O)c(CNc3ccccc3)cc3cc(OC)c(OC)cc32)cc1 | inconclusive: 3.04% [signal inhibitor] |  |
| Cc1nn(-c2ccccc2)c(OC(=O)c2ccccc2Cl)c1S(=O)(=O)c1ccccc1 | inconclusive: 2.62% [signal inhibitor] |  |
| Cc1nnc(NC(=O)CCC(=O)NCc2ccco2)s1 |  | inconclusive: 20 µM [signal inhibitor, partial curve] |
| CC(C)Cc1nc2oc3c(NCc4cccnc4)ncnc3c2c2c1CCC2 | inactive: -1.39% |  |
| COc1ccc2c(c1)c1c(c(=O)n(-c3cccc(Cl)c3)c(=O)n1CC(=O)NCC1CCCO1)n2C (configuration not stated) | inactive: 0.827% |  |
| CCOc1ccc(NC(=O)CSC2=Nc3ccccc3C3=NC(CCC(=O)NCc4cccs4)C(=O)N23)cc1 (configuration not stated) | inconclusive: -0.247% [signal inhibitor] |  |
| CCc1nn2c(=O)cc(COC(=O)c3ccccc3NC(=O)COc3ccc(F)cc3)nc2s1 | inconclusive: 0.318% [signal inhibitor] |  |
| CCOC(=O)c1[nH]c(C)c(CCC(=O)Nc2cccc(C(F)(F)F)c2)c1C | inconclusive: 1.93% [signal inhibitor] |  |
| O=C(Nc1ccccc1C(F)(F)F)c1cc(-c2ccc(O)cc2)on1 | inconclusive: 4.52% [signal inhibitor] |  |
| CCOC(=O)c1sc(NC(=O)C(C)Oc2ccc(OC)cc2)c(C(=O)OCC)c1C (configuration not stated) | inactive: 0.291% |  |
| COc1ccc(C)cc1NC(=O)CN1C(=O)COc2ccc(S(=O)(=O)N3CCOCC3)cc21 | inconclusive: 1.14% [signal inhibitor] |  |
| Cc1ccc(NC(=O)COc2ccc(-c3nn(C)c(=O)c4ccccc34)cc2)cc1 | inconclusive: 8.59% [signal inhibitor] |  |
